Screen size: about 44,000 compounds; about 340 (0.77%) were called active. Not shown: some 5% with an inconclusive outcome. The call rests on the fitted dose curve; in most records, active means well fitted inhibition curve with a large enough effect; inconclusive means small, poorly fitted or top-dose-only effect; inactive means flat fitted curve, though single readings scatter. Some of the results follow.
experiment: Acumen qHTS Assay for Inhibitors of the mTORC1 Signaling Pathway in MEF (Tsc2-/-, p53-/-) Cells: Sytravon; conditions: phospho-rpS6 immunofluorescence/PI, 24 h; series mostly up to 38.3 µM; activity change, negative = inhibition: at the top concentration;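 further: plate controls were DMSO for no effect and rapamycin for full effect; nearly all actives have a fitted effect of over 50% in size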
Procedure, shortened: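 Tsc2-/-, p53-/- MEFs (empty-vector stable line) in DMEM + 10% FBS were treated with compounds 24 h at 37 degree Celsius, fixed, and immunostained for phospho-rpS6 (Alexa-488) with propidium iodide counterstain. Laser-scanning cytometry gave % positive cells, normalized against 7.5 nM rapamycin and DMSO.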

Activity change, negative = inhibition, inactive:
COc1cccc(N2CCN(S(=O)(=O)c3ccc(-c4cnc(C5CC5)o4)cc3)CC2)c1 0%
CCOC(=O)C1CCCN(CCC(=O)Nc2ccc(OC)cc2OC)C1 (stereo unspecified) -0.607%
O=C(CSc1nc2ccccc2n1Cc1ccc(F)c(Cl)c1)N1CCN(c2ccc(F)cc2)CC1 -6.51%
Cc1cccc(-n2ccnc2SCC(=O)Nc2ccccc2C(F)(F)F)c1 -2.8%
COc1ccc(CNC(=O)CCc2c(C)nc3c(c2C)c(=O)n(C)c(=O)n3C)cc1 2.95%
CCn1cc(C(=O)NCCc2ccccc2)c(=O)c2cc(S(=O)(=O)N3CCOCC3)ccc21 -0.142%
CCCc1nn2c(=O)cc(COC(=O)c3ccc(NC(=O)c4cccs4)cc3)nc2s1 5.59%
CCc1ccc(NC(=O)CSC2=Nc3ccccc3C3=NC(CCC(=O)NCc4cccs4)C(=O)N23)cc1 (stereo unspecified) -7.59%
COc1cc(CN2CCc3nc(Nc4ccc5c(c4)OCCO5)ncc3C2)cc(OC)c1OC 0%
CCC(=O)N1CCc2cc(S(=O)(=O)NC(C(=O)NCc3ccc(OC)cc3)C(C)C)ccc21 (stereo unspecified) 2.45%
Cc1ccc(Cn2c(C)c(CNC3CCCCC3)c(C(=O)O)c2C)cc1 0.859%
COc1ccc(OC)c(CCNC(=O)CCCc2nnc3n(C)c(=O)c4sccc4n23)c1 5.14%
COc1cccc(N2C(=O)CSC23C(=O)N(CC(=O)Nc2cc(C)ccc2C)c2ccccc23)c1 (stereo unspecified) -3.92%
CCOC(=O)c1cc2c(=O)n3ccccc3nc2n(Cc2ccco2)c1=NC(=O)c1cc(C)cc(C)c1 -2.54%
COC(=O)c1ccc(NC(=O)c2nn(C)c3c2CS(=O)(=O)c2ccccc2-3)cc1 7.29%
CCc1ccccc1NC(=O)CC(c1ccc(F)cc1)N1Cc2ccccc2C1=O (stereo unspecified) -1.43%
CC1CCN(S(=O)(=O)c2ccc3nc(-c4cccnc4)cc(C(=O)NCCCOC(C)C)c3c2)CC1 -0.374%
COc1ccc2[nH]cc(CCNC(=O)Nc3ccccc3C)c2c1 -0.922%
Cc1ccc(Cl)cc1NC(=O)c1oc2ccc(S(=O)(=O)N3CCC4(CC3)OCCO4)cc2c1C 7.56%
Cc1ccc2sc(N3CCN(C(=O)C4COc5ccccc5O4)CC3)nc2c1C (stereo unspecified) -2.06%
Cc1cc(C)c(NC(=O)c2sc3nc(C)cc(C)c3c2N)c(C)c1 -22.4%
COc1ccc(C)cc1NC(=O)CN1CCN(CC(=O)Nc2ccccc2F)CC1 3.4%
O=C1C2=C(Nc3ccccc3SC2c2c(F)cccc2Cl)c2ccccc21 (stereo unspecified) -8.09%
COc1ccc(NC(=O)Nc2cn(CC(C)C)c(=O)c3ccccc23)c(OC)c1 0.0621%
O=C(NCCc1ccc(F)cc1)C(=O)NCC(c1cccs1)S(=O)(=O)c1cccs1 (stereo unspecified) -10.8%
COc1ccc(-c2cc(-c3ccccc3)nc3c2COc2ccc(Cl)cc2-3)cc1 -2.51%
Cc1oc2ncn(C)c(=O)c2c1C(=O)N(C)c1ccccc1F 1.27%
COc1ccc(NC(=O)CSC2=Nc3ccccc3C3=NC(CCC(=O)NCCc4ccccc4)C(=O)N23)cc1 (stereo unspecified) 0.628%
CC(C)(C)OC(=O)N1CCC(c2c(C(=O)N3CCN(C4CCCCC4)CC3)cnn2-c2cccc(Cl)c2)CC1 -13.2%
COC(=O)c1ccc(NS(=O)(=O)c2ccc3[nH]c4c(c3c2)CCCCC4)cc1 -5.15%
CCOC(=O)N1CCC(NC(=O)c2cnn(-c3cccc(C)c3)c2-n2cccc2)CC1 -7.68%
CC(=O)N1CCCc2cc(S(=O)(=O)N3CCC(C(=O)NC4CCCCC4)CC3)ccc21 -0.326%
Cc1cccc(-n2cc(-c3ccccc3)nc2SCC(=O)Nc2ccccc2Cl)c1 -2.91%
Cc1ccc(C)c(NC(=O)C(C)N(c2ccccc2)S(C)(=O)=O)c1 (stereo unspecified) 2.62%
Cc1oc2ncn(CC(C)C)c(=O)c2c1C(=O)Nc1ccc(Cl)cn1 4.76%
Cc1ccc(C)c(S(=O)(=O)NCC(c2ccc(N(C)C)cc2)N2CCOCC2)c1 (stereo unspecified) 11.9%
Cc1cccc(OCCn2nnc3sc4c(c3c2=O)CCCC4)c1 4.55%
CC(C)c1ccc(NS(=O)(=O)c2ccc3[nH]cc(C(=O)NC4CCCCC4)c(=O)c3c2)cc1 -0.19%
CCOc1ccc(CNCCNC(=O)c2nonc2N)cc1 5.51%
COc1ccc(-n2c(-c3ccc(Cl)cc3)cc3c2CC(C)(C)CC3=O)c(OC)c1 -17.4%
CCOC(=O)c1sc(NC(=O)c2nc(SC)ncc2Cl)c(C(=O)OCC)c1C 5.18%
Cc1cccc(C)c1NC(=O)c1ccc2nc(CCc3ccccc3)oc2c1 5.22%
Cc1cccc(NC(=O)c2sc3cccc(Cl)c3c2Cl)c1 11.7%
COc1ccc(CNC(=O)Cc2c(C)c3ccc(O)cc3oc2=O)cc1 -4%
CNC(=O)c1c(NC(=O)c2cc(=O)c3ccccc3o2)sc2c1CCC2 5.47%
COc1ccc(-c2nc3ccccc3s2)cc1NC(=O)c1ccccc1OC -10.4%
COc1cccc(-c2cc(C(F)(F)F)nc(NCc3ccc(F)cc3)n2)c1 7.88%
Cn1c(=O)c2sccc2n2c(CCCC(=O)Nc3ccc(F)c(F)c3)nnc12 -2.2%
COc1cccc(-c2nc(S(=O)(=O)c3ccccc3)c(NCc3ccccc3)o2)c1 -11.6%
COc1ccc(CCNC(=O)c2ccc3c(c2)nc2n3CCOC2)cc1OC -9.74%
Cc1c(C(=O)Nc2ccc(F)cc2F)nnn1-c1ccccc1Br -1.07%
COc1ccc(C(=O)/C=C/c2cn(CC(O)CN(CC(C)C)CC(C)C)c3ccccc23)cc1OC (stereo unspecified) -11.8%
CC(C)c1ccc(NC(=O)CCS(=O)(=O)c2ccc(Br)s2)cc1 -15.7%
CC1=C(C(=O)Nc2ccccc2)C(c2ccncc2)n2nc(SCc3ccccc3)nc2N1 (stereo unspecified) -4.86%
CCc1nn(CC(=O)NCc2cccc(OC)c2OC)c(=O)c2cc3occc3n12 -1.02%
Cc1ccc(C(=O)COC(=O)C(Cc2c[nH]c3ccccc23)NC(=O)c2ccc(Br)cc2)cc1 (stereo unspecified) -2.9%
Cc1nnc(N2CCC(C(=O)NCc3ccc(N(C)C)cc3)CC2)c2nn(-c3ccccc3)c(C)c12 0.518%
COc1ccc(NC(=O)C2=C(C)Nc3nc(SC)nn3C2c2cc(OC)ccc2OC)cc1 (stereo unspecified) 3.15%
O=C(NCCCO)C(=O)Nc1c2c(nn1-c1ccc(F)cc1)CSC2 -2.34%
O=C(CSc1nc2ccccc2n1Cc1cccc(Cl)c1)N1CCN(c2ccc(F)cc2)CC1 -8.63%
c1ccc(N2CCN(c3ncnc4c3nc3n4CCCC3)CC2)cc1 1.44%

Source: PubChem BioAssay AID493208 (National Center for Advancing Translational Sciences (NCATS), 2011)
